Results taken from PubChem BioAssay AID2676 (National Center for Advancing Translational Sciences (NCATS), 2010).
Among all 370,000 compounds or so, about 1,100 (0.3%) were called active. Inconclusive results, whose numbers are uncertain, are shown with a selection of clear calls. Calls come from the whole dose curve; as a rule, active = well fitted activation curve with a large enough effect; inconclusive = small, poorly fitted or top-dose-only effect; inactive = flat fitted curve, though single readings scatter. Potencies beside an inconclusive call are fits to weak or partial responses and may not hold up.

The compounds below were run against Relaxin receptor 1 (Homo sapiens) (UniProt Q9HBX9) (assay: qHTS Assay for Agonists of the Relaxin Receptor RXFP1). Settings: HEK293T-RXFP1 cAMP TR-FRET, 30 min; series mostly up to 57.5 µM; activation: at the top concentration.
UniProt Q9HBX9, sequence (Q9HBX9 whole entry, looked up): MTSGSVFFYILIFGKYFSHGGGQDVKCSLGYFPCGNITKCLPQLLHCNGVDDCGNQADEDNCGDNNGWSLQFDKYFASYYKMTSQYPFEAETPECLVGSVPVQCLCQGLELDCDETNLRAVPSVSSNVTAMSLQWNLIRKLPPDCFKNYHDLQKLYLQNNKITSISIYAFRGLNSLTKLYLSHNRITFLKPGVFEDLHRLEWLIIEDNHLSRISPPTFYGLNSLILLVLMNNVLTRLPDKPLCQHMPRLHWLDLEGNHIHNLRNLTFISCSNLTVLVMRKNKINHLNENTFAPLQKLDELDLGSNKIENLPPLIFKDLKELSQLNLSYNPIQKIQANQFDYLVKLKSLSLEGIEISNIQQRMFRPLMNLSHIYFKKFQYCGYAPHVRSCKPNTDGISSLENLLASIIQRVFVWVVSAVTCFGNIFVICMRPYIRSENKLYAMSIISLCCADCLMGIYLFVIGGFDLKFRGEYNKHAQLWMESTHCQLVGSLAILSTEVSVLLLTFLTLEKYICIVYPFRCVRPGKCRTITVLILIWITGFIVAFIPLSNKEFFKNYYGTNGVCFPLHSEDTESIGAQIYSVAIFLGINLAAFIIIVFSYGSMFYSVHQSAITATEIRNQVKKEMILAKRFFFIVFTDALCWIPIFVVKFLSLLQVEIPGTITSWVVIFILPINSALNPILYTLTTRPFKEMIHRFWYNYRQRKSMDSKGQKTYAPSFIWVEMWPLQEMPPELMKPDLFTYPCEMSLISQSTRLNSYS
Summary of the method: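 cAMP rise read by TR-FRET after 30 min, 37C compound exposure (up to 58 uM) in RXFP1-transfected HEK293 cells with Ro 20174 present. EC50 from Hill-equation fits, with 29 nM porcine relaxin as 100% and buffer as basal.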
% is set by controls: 0 for no effect and ±100 for the full control effect; potency is the fitted concentration of half-maximal effect; tags give direction and shape of the fitted curve.
Note: nearly all actives have a fitted effect of over 60% in size.

Question: With `COc1ccc(CCNc2nc3c(-c4cccc(C)c4)nnn3c3ccccc23)cc1OC` as the compound, how does the Potency read?
Answer: The Potency was inconclusive: 7.08 µM [activator, full curve].

Question: How did the Potency turn out when `CCCCn1nnc(NC(=O)c2sc3cc(Cl)ccc3c2Cl)n1` was run?
Answer: The Potency was inconclusive: 17.8 µM [activator, partial curve].

Question: With `CN(C)c1ccc(C#Cc2ccc3cc(CCO)oc(=O)c3c2)cc1` as the compound, how does the Potency read?
Answer: The Potency was inconclusive: 28.2 µM [activator, single point].

Question: `COCCCNC(=S)NCCNc1nc2c(C)c(C)ccc2cc1C#N` was tested. Which Potency did it give?
Answer: Its Potency is inconclusive: 31.6 µM [activator, single point].

Question: Which Potency does the source give for `Cc1ccc2nc(SCC(=O)Nc3ccc(F)cc3F)nc(=O)n2c1` here?
Answer: Its Potency is inconclusive: 15.8 µM [activator, partial curve].

Question: How did the Potency turn out when `CCOc1ccc(CCNC(=O)CCCn2c(=O)c3cccn3c3ccccc32)cc1` was run?
Answer: The Potency was inconclusive: 25.1 µM [activator, single point].

Question: `Cc1nnc(NC(=O)CSc2nc(C(C)C)nc3ccccc23)s1` was tested. Which Potency did it give?
Answer: Its Potency is inconclusive: 12.6 µM [activator, partial curve].

Question: How did the “activation” value turn out when `CCn1c(/C=C/Nc2ccccc2)[n+](CC)c2cc(Cl)c(Cl)cc21` was run?
Answer: The value was inactive: -0.334%.

Question: For `Cc1nc(SCC(=O)NCC2CCCO2)c2c3c(sc2n1)CCC3` (stereo not drawn), which Potency is on record?
Answer: Its Potency is inconclusive: 20 µM [activator, partial curve].

Question: With `CCc1ccc2nc(NC(=O)c3ccc(N4C(=O)CCC4=O)cc3)sc2c1` as the compound, how does the Potency read?
Answer: The Potency was inconclusive: 39.8 µM [activator, single point].

Question: For `COc1ccc(Cl)cc1N=Cc1c(O)c2ccccc2oc1=O`, which Potency is on record?
Answer: The Potency was inconclusive: 35.5 µM [activator, single point].

Question: With `COC(=O)CSc1nc2cc3c(cc2cc1C#N)OCO3` as the compound, how does the Potency read?
Answer: The Potency was inconclusive: 35.5 µM [activator, single point].

Question: How did the Potency turn out when `N#C/C(=C(\O)c1cc(Cl)sc1Cl)c1nc2ccccc2[nH]1` was run?
Answer: Its Potency is inconclusive: 31.6 µM [activator, single point].

Question: `CCOC(=O)c1sc(NC(=O)CSc2n[nH]c(-c3ccccc3)n2)c(C#N)c1C` was tested. Which “activation” value did it give?
Answer: Its value is inactive: -0.203%.

Question: With `O=C(CN1C(=O)C2CC=CCC2C1=O)OCc1cc(=O)n2cc(Br)ccc2n1` (stereo not drawn) as the compound, how does the Potency read?
Answer: The Potency was inconclusive: 20 µM [activator, partial curve].

Question: How did the Potency turn out when `CSc1ncc(C(=O)Nc2ccc(F)cc2F)c(-c2ccccc2)n1` was run?
Answer: The Potency was inconclusive: 35.5 µM [activator, single point].

Question: With `Cc1ccc(NC(=O)CSc2nnc(-c3ccncc3)s2)cc1` as the compound, how does the Potency read?
Answer: The Potency was inconclusive: 25.1 µM [activator, single point].

Question: How did the Potency turn out when `O=C(CCn1c(=O)c2sccc2n(Cc2cccc(F)c2)c1=O)NCc1ccc2c(c1)OCO2` was run?
Answer: Its Potency is inconclusive: 22.4 µM [activator, partial curve].

Question: How did the Potency turn out when `Cc1cccc(-c2nc3c(c(=O)c4ccccc4n3C)c(=O)n2-c2ccccc2)c1` was run?
Answer: The Potency was inconclusive: 39.8 µM [activator, single point].

Question: How did the “activation” value turn out when `Cc1cccc(C)c1NC(=O)Cn1c(=O)n(Cc2ccco2)c(=O)c2ccc(C(=O)NC3CCCC3)cc21` was run?
Answer: Its value is inactive: 0.0876%.

Question: With `CSc1ccc(CNC(=O)CCn2c(=O)c3cccn3c3ccc(F)cc32)cc1` as the compound, how does the Potency read?
Answer: The Potency was inconclusive: 20 µM [activator, partial curve].

Question: With `CCN(CC)C(=O)Cn1cc(S(=O)(=O)Cc2cccc([N+](=O)[O-])c2)c2ccccc21` as the compound, how does the “activation” value read?
Answer: The value was inactive: -0.299%.

Question: `COc1cc(C(=O)NC(=S)Nc2cccc3nc(C)ccc23)cc(OC)c1OC` was tested. Which Potency did it give?
Answer: Its Potency is inconclusive: 35.5 µM [activator, partial curve].

Question: `O=C1C(=O)N(CCCn2ccnc2)C(c2ccc(Cl)cc2)/C1=C(\O)c1ccc2c(c1)OCCO2` (stereo not drawn) was tested. Which Potency did it give?
Answer: Its Potency is inconclusive: 25.1 µM [activator, partial curve].

Question: Which Potency does the source give for `CCn1c(=S)[nH]c2nc3c(cc2c1=O)CCCC3` here?
Answer: The Potency was inconclusive: 35.5 µM [activator, single point].

Question: With `CCOC(=O)c1ccc(NC(=O)COC(=O)c2cn(CC)c3nc(C)ccc3c2=O)cc1` as the compound, how does the Potency read?
Answer: The Potency was inconclusive: 31.6 µM [activator, single point].

Question: With `Cc1ccc(-n2c(SCC(=O)NCc3ccco3)nc3sc(C)c(C)c3c2=O)cc1` as the compound, how does the Potency read?
Answer: Its Potency is inconclusive: 39.8 µM [activator, single point].

Question: How did the Potency turn out when `CCC(C(=O)NCc1ccccc1Cl)n1nc(C)c2sc3ccccc3c2c1=O` (stereo not drawn) was run?
Answer: The Potency was inconclusive: 22.4 µM [activator, partial curve].

Question: For `Cn1c(=O)c2c(ncn2CC(=O)N2CCN(c3ccc([N+](=O)[O-])cc3)CC2)n(C)c1=O`, which Potency is on record?
Answer: Its Potency is inconclusive: 25.1 µM [activator, partial curve].

Question: For `CC(C)Cn1c(=O)c2sccc2n2c(CCCC(=O)NCc3ccccc3Cl)nnc12`, which Potency is on record?
Answer: Its Potency is inconclusive: 35.5 µM [activator, single point].

Question: Which Potency does the source give for `CCc1ccc2oc(-c3cc(NC(=O)C(C)C)cc(C)c3O)nc2c1` here?
Answer: Its Potency is inconclusive: 39.8 µM [activator, single point].

Question: With `Cc1cnc(C(=O)OCC(=O)c2ccc(Br)s2)cn1` as the compound, how does the Potency read?
Answer: Its Potency is inconclusive: 17.8 µM [activator, partial curve].

Question: `Oc1ccc(Cl)cc1C1=Nc2ccccc2N=C(c2cccc(Br)c2)C1` was tested. Which Potency did it give?
Answer: The Potency was inconclusive: 35.5 µM [activator, single point].

Question: Which “activation” value does the source give for `O=C(N/N=C/c1ccc([N+](=O)[O-])o1)c1ccc2c(c1)OCO2` here?
Answer: Its value is inactive: 3.97%.

Question: For `Cc1ccc(CNC(=O)c2ccc3c(=O)n(-c4ccccc4)c(=O)[nH]c3c2)cc1`, which Potency is on record?
Answer: The Potency was inconclusive: 22.4 µM [activator, single point].

Question: For `CC(NC(=O)c1cc(=O)[nH]c2ccc(Br)cc12)c1ccccc1` (stereo not drawn), which Potency is on record?
Answer: Its Potency is inconclusive: 35.5 µM [activator, single point].

Question: With `Cc1cccn2c(=O)c3cc(C(=O)NCc4ccccc4)c(=N)n(CCOCCO)c3nc12` as the compound, how does the Potency read?
Answer: Its Potency is inconclusive: 35.5 µM [activator, partial curve].

Question: `COc1cccc2c1cc1c(=O)n(CC(=O)NCc3ccccn3)nc(C)n12` was tested. Which Potency did it give?
Answer: Its Potency is inconclusive: 39.8 µM [activator, single point].

Question: `Cc1ccc(C)c(NC(=O)Cn2cc(C(=O)c3ccc(Cl)cc3)c(=O)c3ccc(C)nc32)c1` was tested. Which Potency did it give?
Answer: Its Potency is inconclusive: 35.5 µM [activator, single point].

Question: How did the Potency turn out when `Cc1ccc(CNC(=O)Cn2cc(C(=O)c3ccc(F)cc3)c(=O)c3ccc(C)nc32)cc1` was run?
Answer: Its Potency is inconclusive: 35.5 µM [activator, single point].

Question: How did the Potency turn out when `CCn1c(SCC(=O)N2CCCCC2)nc2c1c(=O)n(C)c(=O)n2C` was run?
Answer: Its Potency is inconclusive: 15.8 µM [activator, partial curve].

Question: With `COc1cc(C(=O)NCCNC(=O)c2cc(OC)c(C)c(OC)c2)cc(OC)c1C` as the compound, how does the Potency read?
Answer: The Potency was inconclusive: 31.6 µM [activator, single point].

Question: Which Potency does the source give for `CCOc1ccc(NC(=O)Cn2ccn(-c3ccc(F)c(F)c3)c(=O)c2=O)cc1` here?
Answer: Its Potency is inconclusive: 22.4 µM [activator, partial curve].

Question: `CC(=O)c1ccc(NC(=O)C(=O)c2cn(CC(=O)N3CCCCC3)c3ccccc23)cc1` was tested. Which Potency did it give?
Answer: Its Potency is inconclusive: 25.1 µM [activator, single point].

Question: How did the Potency turn out when `c1ccc2[nH]c(CSc3ncnc4c3oc3ccccc34)nc2c1` was run?
Answer: The Potency was active: 25.1 µM.

Question: Which Potency does the source give for `COc1ccc(-n2c(=O)c3ccc(C(=O)NCc4ccc(C)cc4)cc3n(CC(=O)Nc3ccc(F)cc3)c2=O)cc1` here?
Answer: The Potency was active: 31.6 µM.

Question: Which “activation” value does the source give for `Cc1ccc(C(=O)COC(=O)C(CC(C)C)NC(=O)C2CCC(C)CC2)cc1` (stereo not drawn) here?
Answer: The value was inactive: -0.608%.

Question: How did the Potency turn out when `O=C(Nc1ccc(N2C(=O)C3CCCCC3C2=O)cc1Cl)c1cccs1` (stereo not drawn) was run?
Answer: Its Potency is inconclusive: 31.6 µM [activator, single point].

Question: For `CCOc1cccc(NC(=O)CSc2nc(C)c3c(c2C#N)CCCC3)c1`, which Potency is on record?
Answer: The Potency was inconclusive: 28.2 µM [activator, single point].

Question: `CCOC(=O)c1c(C)[nH]sc1=S` was tested. Which Potency did it give?
Answer: Its Potency is active: 25.1 µM.

Question: Which Potency does the source give for `CC(=O)Nc1ccc(-c2sc(Nc3ccccc3)n[n+]2C)cc1` here?
Answer: The Potency was inconclusive: 28.2 µM [activator, partial curve].

Question: Which Potency does the source give for `CN(Cc1ccccc1)S(=O)(=O)c1ccc2[nH]c(=O)ccc2c1` here?
Answer: The Potency was inconclusive: 39.8 µM [activator, single point].

Question: For `Cc1cc2c(SCC(=O)NCC3CCCO3)ncnc2s1` (stereo not drawn), which Potency is on record?
Answer: Its Potency is inconclusive: 15.8 µM [activator, partial curve].

Question: Which Potency does the source give for `O=C(NCCc1ccc(Cl)cc1)C1CCC(CNc2nc(=S)[nH]c3ccccc23)CC1` (stereo not drawn) here?
Answer: Its Potency is inconclusive: 20 µM [activator, partial curve].

Question: With `COc1cc(C2C(C(C)=O)=C(O)C(=O)N2CCN2CCOCC2)ccc1O` (stereo not drawn) as the compound, how does the “activation” value read?
Answer: The value was inactive: 1.04%.

Question: With `O=C(NCc1cccc(Cl)c1)C(=O)Nc1ccc2nc3n(c(=O)c2c1)CCCCC3` as the compound, how does the Potency read?
Answer: The Potency was inconclusive: 39.8 µM [activator, single point].

Question: With `N#Cc1ccc(CSc2ccccn2)c(Cl)c1` as the compound, how does the “activation” value read?
Answer: The value was inactive: 0.544%.

Question: For `O=C(COC(=O)c1ccc(Cl)cc1O)NC(=O)C1CCCCC1`, which Potency is on record?
Answer: The Potency was inconclusive: 35.5 µM [activator, single point].

Question: Which Potency does the source give for `S=c1[nH]cnc2sc(-c3ccccc3)cc12` here?
Answer: The Potency was inconclusive: 25.1 µM [activator, partial curve].

Question: How did the Potency turn out when `CCOC(=O)c1ccc(Nc2ncnc3c2cnn3-c2cccc(Cl)c2)cc1` was run?
Answer: The Potency was inconclusive: 39.8 µM [activator, single point].

Question: With `COc1ccc(OC)c(CNC(=O)CCn2c(=O)c3cccn3c3ccc(F)cc32)c1` as the compound, how does the Potency read?
Answer: The Potency was inconclusive: 20 µM [activator, partial curve].

Question: `COC(=O)CCc1c(C)c(C(=O)c2ccco2)c2ccccn12` was tested. Which Potency did it give?
Answer: The Potency was inconclusive: 17.8 µM [activator, partial curve].

Question: Which Potency does the source give for `Cc1ccc2nc(SCC(=O)NCc3cccs3)c(C#N)cc2c1` here?
Answer: The Potency was inconclusive: 8.91 µM [activator, partial curve].
